Laboratory results taken from PubChem BioAssay AID1159614 (National Center for Advancing Translational Sciences (NCATS), 2016).
In all, about 45,000 compounds went through this assay and about 65 (0.1%) were called active. The call rests on the fitted dose curve; in most records, active means well fitted activation curve with a large enough effect; inconclusive means small, poorly fitted or top-dose-only effect; inactive means no such curve, though single readings can be large or run the other way. The list shows a part of the results.

These compounds were tested against Galactocerebrosidase (Homo sapiens) (UniProt P54803) (assay: A Novel Cell-Based Assay to Identify Small Molecules for B -Galactocerebrosidase). Conditions: 145M-Twi-hGALC-G270D cells, HMU-beta-Gal fluorescence, 48 h; series mostly up to 57.5 µM; activation: at the top concentration.
Summary of the method: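 qHTS, 1536-well; 145M-Twi-hGALC-G270D cells (WT line also made) in DMEM/F12 + 10% FBS; compound incubation on live cells; HMU-β-gal 0.1 mM final, pH 5.2, NaTC; carbonate stop; fluorescence increase = enhanced residual activity.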
Further: 0% is about no effect; nearly all actives have a fitted effect of over 65% in size.

Chain of UniProt P54803 (P54803 whole entry, looked up): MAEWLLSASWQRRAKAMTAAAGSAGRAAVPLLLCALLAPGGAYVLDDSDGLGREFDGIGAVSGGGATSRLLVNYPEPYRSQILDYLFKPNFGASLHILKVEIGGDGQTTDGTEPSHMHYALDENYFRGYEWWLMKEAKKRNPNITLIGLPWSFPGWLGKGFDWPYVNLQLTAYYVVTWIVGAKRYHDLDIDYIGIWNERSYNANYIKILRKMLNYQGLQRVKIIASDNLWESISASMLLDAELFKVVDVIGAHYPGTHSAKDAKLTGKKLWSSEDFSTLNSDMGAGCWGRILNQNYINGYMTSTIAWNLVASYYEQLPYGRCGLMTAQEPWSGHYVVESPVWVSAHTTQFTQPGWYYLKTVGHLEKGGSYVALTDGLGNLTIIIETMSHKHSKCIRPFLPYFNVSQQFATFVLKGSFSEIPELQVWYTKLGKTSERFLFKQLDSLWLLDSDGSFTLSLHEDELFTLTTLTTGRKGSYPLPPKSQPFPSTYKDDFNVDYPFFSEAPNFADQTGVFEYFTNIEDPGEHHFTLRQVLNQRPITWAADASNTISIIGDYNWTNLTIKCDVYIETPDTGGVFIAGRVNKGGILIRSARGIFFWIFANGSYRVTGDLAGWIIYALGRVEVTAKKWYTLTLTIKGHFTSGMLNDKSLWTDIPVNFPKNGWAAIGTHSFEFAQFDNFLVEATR

activation, inactive:
COc1ccc(NC(=O)Cn2nnc(C(=O)Nc3ccc(F)c(Cl)c3)c2N)cc1OC -17%
COc1ccc(-c2noc(CN(C(=O)COc3cc(C)c(Br)c(C)c3)C(C)C)n2)cc1 -34.1%
Cn1c(SCc2ccc(F)cc2)nc2ccc(C(=O)NCc3ccc(Cl)cc3)cc21 0.296%
CCN(CC)c1ccc(NS(=O)(=O)c2ccc(-c3cnc(C4CC4)o3)cc2)c(C)c1 -15.7%
O=C1NCCN(Cc2ccc(F)cc2)C1=O -9.87%
CCC1CN(C(=O)N2CCC(C(=O)NCCc3ccc(Cl)cc3)CC2)c2ccccc2O1 (configuration not stated) -8.53%
CCCn1c(SCc2nc(-c3ccc(OC)cc3OC)no2)nnc1-c1ccc(Cl)cc1 -14.6%
Cc1cccc(C)c1NC(=O)CSc1nc(-c2ccccc2)nc2c1Cc1c(CO)cnc(C)c1O2 -14.1%
CCc1ccc(S(=O)(=O)c2cn(CC(=O)Nc3ccc(C)cc3)c3ccccc3c2=O)cc1 -8.57%
CCOC(=O)c1[nH]c2c(c1Cc1ccccc1)C(=O)CC(c1ccc(Cl)cc1)C2 (configuration not stated) -15.5%
Cn1c(=O)c(=O)n(C)c2cc(N3CCOCC3)c(NS(=O)(=O)c3ccc(Cl)cc3)cc21 -10.7%
COC(=O)c1scc(-c2ccc(C)cc2)c1S(=O)(=O)Nc1cc(Cl)ccc1C -45.7%
O=S(=O)(NCCc1nnc2ccc(SCc3ccc(Cl)cc3Cl)nn12)c1ccccc1 -5.76%
CCOC(=O)c1ccc(NC(=O)c2c(NC(C)=O)sc3c2CCC(C)C3)cc1 (configuration not stated) -8.93%
CCOc1ccc(CCNC(=O)c2ccc3c(Cl)c4c(nc3c2)CCCC4)cc1 -12.3%
COc1cccc(C(c2sc3nc(-c4ccco4)nn3c2O)N2CCC(O)CC2)c1 (configuration not stated) -21%
Cc1ccc(CNC(=O)c2ccc3nc(N4CCCCC4)sc3c2)cc1 -9.05%
CCOc1ccccc1NC(=O)c1sc2nc3n(c(=O)c2c1C)CCCCC3 -16.9%
CN(C(=O)c1ccc2c(c1)N(Cc1cccc(Cl)c1)C(=O)c1ccccc1S2=O)C1CCCCC1 (configuration not stated) -36%
CCOC(=O)C1=C(CS(=O)(=O)c2ccc(C)cc2)NC(=O)NC1c1ccc(C(C)C)cc1 (configuration not stated) -14.4%
COc1ccc(NC(=O)CCS(=O)(=O)c2cccc3nonc23)cc1Cl -12.6%
Cc1ccc(CSCc2ccc(C(=O)NCCc3ccc(Cl)cc3)o2)cc1 -11.5%
O=c1[nH]c(=O)c2[nH]c(=O)[nH]c2[nH]1 -11% [at 11.5 µM]
CC(C)Oc1ccc(CNC(=O)CN2C(=O)CCc3cc(S(=O)(=O)N4CCCCC4)ccc32)cc1 1.75%
Cc1cc(C)cc(N2C(=O)CSC23C(=O)N(CC(=O)NCCc2ccccc2)c2ccccc23)c1 (configuration not stated) -12.3%
O=C(CSC1=Nc2ccccc2N=C(c2ccc(F)cc2)C1)NCc1ccc(F)cc1 2.37%
Cc1ccc(C)c(CN2C(=O)CSc3ccc(C(=O)NCc4ccc(F)cc4)cc32)c1 -7.56%
COc1ccccc1NCc1cccn1-c1nnc(N2CCOCC2)s1 -20.5%
Cc1oc2ncn(C)c(=O)c2c1C(=O)NC(C)c1ccccc1 (configuration not stated) -6.27%
COc1ccc(N2CCN(C(CNC(=O)C(=O)NCCCN(C)C)c3cccnc3)CC2)cc1 (configuration not stated) -9%
CCOc1c(Cl)cc(Cl)cc1CNCCSc1nnnn1C 4.71%
Cc1ccc(CSc2nc3cccnc3n2Cc2ccc(C(=O)NCCc3ccccc3)cc2)cc1 -9.53%
CCC(=O)N1c2nc(-c3ccco3)nn2C2(CCCCC2)[C@@H]2CCCC[C@@H]21 -18.5%
CCS(=O)(=O)N1CCc2cc(C(=O)Nc3cccc(Cl)c3C)ccc21 -17.7%
Cc1nc2c(-c3ccccc3)c(C)nn2c(C)c1CCC(=O)NCc1ccccc1Cl -1.43%
O=C(Nc1cc2c(cc1C(=O)c1ccccc1Cl)OCCO2)c1ccc(Br)cc1 -3.11%
COc1ccc(-c2cn3nc(N4CCCC(C(=O)Nc5ccc(C)c(C)c5)C4)sc3n2)cc1 (configuration not stated) -12.5%
FC(F)(F)c1cc(-c2ccccc2)nc2cc(-c3ccc(Br)cc3)nn12 -8.09%
Cc1ccc(-n2nnnc2CNC(=O)c2ccccc2S(C)(=O)=O)cc1C -16%
CCCn1cc(S(=O)(=O)c2cc(C)ccc2C)c(=O)c2cc(F)c(N3CCOCC3)cc21 -16.1%
COC(=O)c1c(SCC(=O)Nc2cc(C)cc(C)c2)[nH]c2ccccc2c1=O -12.5%
CCc1ccc2occ(CC(=O)Nc3c(C(=O)Nc4ccc(C)cc4)oc4ccccc34)c2c1 -17.9%
O=C(CCC(=O)OCC(=O)c1ccc(Cl)cc1)Nc1ccc(Oc2ccccc2)cc1 -12.3%
Cc1ccc(CSc2nc(-c3cccs3)ccc2C#N)cc1 -8.88%
COc1ccc(-n2nc(C(=O)Nc3ccccc3OC)c3c4ccccc4n(C)c3c2=O)cc1Cl -5.08%
CC(C)c1cnc2c(c1SCC(=O)Nc1ccccc1C(F)(F)F)c(=O)n(C)c(=O)n2C -10.2%
COc1cccc(-c2nn(C)c3sc(C(=O)NCCc4ccc(Cl)cc4)cc23)c1 -15.5%
CCCNc1ncnc2onc(C)c12 -2.28%
Cc1ccc(C(=O)n2nc(C)c(S(=O)(=O)N3CCOCC3)c2C)cc1 5.09%
CCOc1ccc(NC(=O)NCCCN2CCN(c3ccc(F)cc3)CC2)cc1 -14.3%
Cc1nnc(SCc2ccc(Cl)cc2)c2cc3occc3n12 -12.7%
Cc1cccc(N2CCN(c3cc(C)nc4c(-c5ccc(Cl)cc5)c(C)nn34)CC2C)c1 (configuration not stated) -10.4%
Cc1ccccc1S(=O)(=O)Cc1ccc(C(=O)NC2CCCCC2)o1 2.74%
COc1ccc(NC(=O)c2oc3ccccc3c2NC(=O)c2cc3ccccc3o2)cc1 6.11%
COc1ccc2c(c1)CC(NC(=O)Nc1c(C)cc(C)cc1C)CO2 (configuration not stated) -10%
Cc1ccc(OC(=O)c2cc(-c3ccc4c(c3)OCCO4)on2)cc1C -9.4%
CCOc1ccc(NS(=O)(=O)c2ccc3[nH]cc(C(=O)N(C)Cc4ccccc4)c(=O)c3c2)cc1 7.21%
CC(=O)N1CCc2c(sc3c2c(=O)n(-c2ccccc2)c(=O)n3CC(=O)Nc2ccccc2C)C1 -7.24%
COc1ccc(C)cc1S(=O)(=O)N1CCN(c2cccc(Cl)c2)CC1 -40.6%
Cc1cccc(-n2c3nc(=O)[nH]c(=O)c-3cc3c(Cl)cccc32)c1C 1.98%
CCOc1ccc(NC(=O)CSc2nnc3scc(-c4ccc(Cl)cc4)n23)cc1 -13.9%
CCOc1cccc2cc(-c3nc4ccc(C(=O)O)cc4[nH]3)c(=O)oc12 -9.21%
